Residue numbers refer to the chain shown, from its start. The list shows a part of the results.
T1: RBFOX1 RRM (Homo sapiens, UniProt Q9NWB1 109-208)
T1 sequence: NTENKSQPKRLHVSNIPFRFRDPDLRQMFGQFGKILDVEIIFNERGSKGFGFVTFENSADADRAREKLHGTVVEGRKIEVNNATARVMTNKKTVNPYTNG

B1: UCAGGUA (DNA:RNA)
RNA: GGGAGACCGGAAUUCAGAUUGUCCUCAGGUAUUAAAUCCCGUCGUAGCCACCA
DNA 1: CAATCTGAATTCCGGTCTCCC
DNA 2: TGGTGGCTACGACGGGATT
B2: GGGGGAA (DNA:RNA)
RNA: B1 RNA with U25G, C26G, A27G, U30A
DNA 1: CAATCTGAATTCCGGTCTCCC
DNA 2: TGGTGGCTACGACGGGATT
B3: UAGCUUC (DNA:RNA)
RNA: B1 RNA with C26A, A27G, G28C, G29U, A31C
DNA 1: CAATCTGAATTCCGGTCTCCC
DNA 2: TGGTGGCTACGACGGGATT
B4: UUUACAC (DNA:RNA)
RNA: B1 RNA with C26U, A27U, G28A, G29C, U30A, A31C
DNA 1: CAATCTGAATTCCGGTCTCCC
DNA 2: TGGTGGCTACGACGGGATT
B5: GACCGUU (DNA:RNA)
RNA: B1 RNA with U25G, C26A, A27C, G28C, A31U
DNA 1: CAATCTGAATTCCGGTCTCCC
DNA 2: TGGTGGCTACGACGGGATT
B6: GCUUUCC (DNA:RNA)
RNA: B1 RNA with U25G, A27U, G28U, G29U, U30C, A31C
DNA 1: CAATCTGAATTCCGGTCTCCC
DNA 2: TGGTGGCTACGACGGGATT
B7: CGGAAAG (DNA:RNA)
RNA: GGGAGACCGGAAUUCAGAUUGUCCCGGAAAGUUAAAUCCCGUCGUAGCCACCA
DNA 1: CAATCTGAATTCCGGTCTCCC
DNA 2: TGGTGGCTACGACGGGATT
B8: UUGUAUU (DNA:RNA)
RNA: B7 RNA with C25U, G26U, A28U, A30U, G31U
DNA 1: CAATCTGAATTCCGGTCTCCC
DNA 2: TGGTGGCTACGACGGGATT
B9: UUGAAAA (DNA:RNA)
RNA: B7 RNA with C25U, G26U, G31A
DNA 1: CAATCTGAATTCCGGTCTCCC
DNA 2: TGGTGGCTACGACGGGATT
B10: AGCAAUC (DNA:RNA)
RNA: B7 RNA with C25A, G27C, A30U, G31C
DNA 1: CAATCTGAATTCCGGTCTCCC
DNA 2: TGGTGGCTACGACGGGATT
B11: UAUUAUC (DNA:RNA)
RNA: B1 RNA with C26A, A27U, G28U, G29A, A31C
DNA 1: CAATCTGAATTCCGGTCTCCC
DNA 2: TGGTGGCTACGACGGGATT
B12: UCGGAGC (DNA:RNA)
RNA: B1 RNA with A27G, G29A, U30G, A31C
DNA 1: CAATCTGAATTCCGGTCTCCC
DNA 2: TGGTGGCTACGACGGGATT
B13: ACACUCU (DNA:RNA)
RNA: B1 RNA with U25A, G28C, G29U, U30C, A31U
DNA 1: CAATCTGAATTCCGGTCTCCC
DNA 2: TGGTGGCTACGACGGGATT
B14: UCACUAG (DNA:RNA)
RNA: B1 RNA with G28C, G29U, U30A, A31G
DNA 1: CAATCTGAATTCCGGTCTCCC
DNA 2: TGGTGGCTACGACGGGATT
B15: GGGAUAU (DNA:RNA)
RNA: B7 RNA with C25G, A29U, G31U
DNA 1: CAATCTGAATTCCGGTCTCCC
DNA 2: TGGTGGCTACGACGGGATT
B16: UGCCCCC (DNA:RNA)
RNA: B7 RNA with C25U, G27C, A28C, A29C, A30C, G31C
DNA 1: CAATCTGAATTCCGGTCTCCC
DNA 2: TGGTGGCTACGACGGGATT
B17: AGAUGGG (DNA:RNA)
RNA: B7 RNA with C25A, G27A, A28U, A29G, A30G
DNA 1: CAATCTGAATTCCGGTCTCCC
DNA 2: TGGTGGCTACGACGGGATT
B18: CGACAUU (DNA:RNA)
RNA: B7 RNA with G27A, A28C, A30U, G31U
DNA 1: CAATCTGAATTCCGGTCTCCC
DNA 2: TGGTGGCTACGACGGGATT
B19: UGCCAUG (DNA:RNA)
RNA: B7 RNA with C25U, G27C, A28C, A30U
DNA 1: CAATCTGAATTCCGGTCTCCC
DNA 2: TGGTGGCTACGACGGGATT
B20: AUACGUG (DNA:RNA)
RNA: B1 RNA with U25A, C26U, G28C, A31G
DNA 1: CAATCTGAATTCCGGTCTCCC
DNA 2: TGGTGGCTACGACGGGATT
B21: GAAAGGG (DNA:RNA)
RNA: B7 RNA with C25G, G26A, G27A, A29G, A30G
DNA 1: CAATCTGAATTCCGGTCTCCC
DNA 2: TGGTGGCTACGACGGGATT
B22: GCAUCCU (DNA:RNA)
RNA: B1 RNA with U25G, G28U, G29C, U30C, A31U
DNA 1: CAATCTGAATTCCGGTCTCCC
DNA 2: TGGTGGCTACGACGGGATT
B23: GAGCAAG (DNA:RNA)
RNA: B7 RNA with C25G, G26A, A28C
DNA 1: CAATCTGAATTCCGGTCTCCC
DNA 2: TGGTGGCTACGACGGGATT
B24: AUCAAUU (DNA:RNA)
RNA: B7 RNA with C25A, G26U, G27C, A30U, G31U
DNA 1: CAATCTGAATTCCGGTCTCCC
DNA 2: TGGTGGCTACGACGGGATT
B25: AACAGAA (DNA:RNA)
RNA: B7 RNA with C25A, G26A, G27C, A29G, G31A
DNA 1: CAATCTGAATTCCGGTCTCCC
DNA 2: TGGTGGCTACGACGGGATT
B26: UUUCAGU (DNA:RNA)
RNA: B7 RNA with C25U, G26U, G27U, A28C, A30G, G31U
DNA 1: CAATCTGAATTCCGGTCTCCC
DNA 2: TGGTGGCTACGACGGGATT
B27: CCAUAUC (DNA:RNA)
RNA: B1 RNA with U25C, G28U, G29A, A31C
DNA 1: CAATCTGAATTCCGGTCTCCC
DNA 2: TGGTGGCTACGACGGGATT
B28: UAUUAGG (DNA:RNA)
RNA: B7 RNA with C25U, G26A, G27U, A28U, A30G
DNA 1: CAATCTGAATTCCGGTCTCCC
DNA 2: TGGTGGCTACGACGGGATT
B29: AACUCCU (DNA:RNA)
RNA: GGGAGACCGGAAUUCAGAUUGUCCAACUCCUUUAAAUCCCGUCGUAGCCACCA
DNA 1: CAATCTGAATTCCGGTCTCCC
DNA 2: TGGTGGCTACGACGGGATT
B30: UGUUAAC (DNA:RNA)
RNA: B7 RNA with C25U, G27U, A28U, G31C
DNA 1: CAATCTGAATTCCGGTCTCCC
DNA 2: TGGTGGCTACGACGGGATT
B31: AAAGAAC (DNA:RNA)
RNA: B29 RNA with C27A, U28G, C29A, C30A, U31C
DNA 1: CAATCTGAATTCCGGTCTCCC
DNA 2: TGGTGGCTACGACGGGATT

molecular target: T1, RBFOX1 RRM; assay: EMSA; HiTS-Eq, 1 nM pool, 10 min; buffer printed only for the single-RNA assays: 10 mM Tris pH 7.5, 150 mM NaCl, 3.4 mM EDTA, 0.001% NP-40, 30 C; conditions: tags: His6 N-terminal (pET28a); label: 5' 32P
In short: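 Purified RbFox RRM, wild type or mutant, was incubated for 10 min in 50 µL with 1 nM of a 5′-radiolabelled RNA pool carrying 7 randomized nucleotides, whose flanks were annealed to DNA oligonucleotides, over a series of increasing protein concentrations. Unbound RNA was resolved on 8% native PAGE, cut out, reverse-transcribed, barcoded by PCR and sequenced on an Illumina HiSeq 2500. Relative association constants were derived from changes in read counts for each RNA species versus the control reaction and normalised to the cognate motif.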

First: B1
Second: B2
The binding signal of the first is lower: 0.0111 KA relative to UGCAUGU for the first, 0.022 KA relative to UGCAUGU for the second.

First: B3
Second: B4
The binding signal of the first is higher: 0.012 KA relative to UGCAUGU for the first, 0.000916 KA relative to UGCAUGU for the second.

First: B5
Second: B6
The binding signal of the first is lower: 0.0123 KA relative to UGCAUGU for the first, 0.0202 KA relative to UGCAUGU for the second.

First: B7
Second: B8
The binding signal of the first is higher: 0.0218 KA relative to UGCAUGU for the first, 0.00921 KA relative to UGCAUGU for the second.

First: B9
Second: B10
The binding signal of the first is lower: 0.00876 KA relative to UGCAUGU for the first, 0.00921 KA relative to UGCAUGU for the second.

First: B11
Second: B12
The binding signal of the first is lower: 0.00535 KA relative to UGCAUGU for the first, 0.00541 KA relative to UGCAUGU for the second.

First: B13
Second: B14
The binding signal of the first is lower: 0.000285 KA relative to UGCAUGU for the first, 0.0053 KA relative to UGCAUGU for the second.

First: B15
Second: B16
The binding signal of the first is higher: 0.0263 KA relative to UGCAUGU for the first, 0.00443 KA relative to UGCAUGU for the second.

First: B17
Second: B18
The binding signal of the first is higher: 0.00903 KA relative to UGCAUGU for the first, 0.0026 KA relative to UGCAUGU for the second.

First: B19
Second: B20
The binding signal of the first is higher: 0.0208 KA relative to UGCAUGU for the first, 0.0068 KA relative to UGCAUGU for the second.

First: B21
Second: B22
The binding signal of the first is lower: 0.00294 KA relative to UGCAUGU for the first, 0.0211 KA relative to UGCAUGU for the second.

First: B23
Second: B24
The binding signal of the first is higher: 0.0175 KA relative to UGCAUGU for the first, 0.00219 KA relative to UGCAUGU for the second.

Compared with B25, B26 is higher in binding signal: 0.00258 KA relative to UGCAUGU for the first, 0.0155 KA relative to UGCAUGU for the second.

First: B27
Second: B28
The binding signal of the first is lower: 0.002 KA relative to UGCAUGU for the first, 0.00719 KA relative to UGCAUGU for the second.

First: B29
Second: B30
The binding signal of the first is lower: 0.0003 KA relative to UGCAUGU for the first, 0.0104 KA relative to UGCAUGU for the second.

With B31 the binding signal was 0.00624 KA relative to UGCAUGU.
